Results published in the supplement of paper PMC10338343.
± gives the standard deviation. Over roughly 3,700 sequences, “pre-steady-state target cleavage rate” has its median near 0.02; the highest 2% begin near 0.23. The list shows a part of the results, in another mix than the full data.

The sequences below were run on MILI (PIWIL2) piRISC loaded with Kctd7 piRNA (26 nt) (assay: pre-steady-state target cleavage rate (min^-1); MIWI and MILI are mouse PIWI proteins and EfPiwi is from a freshwater sponge; tags in brackets are library labels; higher = faster piRNA-guided slicing of the target). Conditions: guide: Kctd7 piRNA 5'p-UGUUAAUCUCUCAGAGAAGGUGACAG; auxiliary factor: 500 nM mouse GTSF1.
Method in brief: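 Using HEPES–potassium acetate buffer at 33 °C, 1 nM active affinity-purified piRISC with a single synthetic guide was mixed with 0.1 nM transcribed, DNA-blocked target RNA library for 0–8 or 0–960 min, with or without 500 nM GTSF1 partner protein. Uncleaved targets were sequenced and normalised to depth and to weakly complementary targets, and three trials were pooled with k3 capped at 0.0001 min^-1. A burst-and-steady-state fit gave the pre-steady-state cleavage rate.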
For UAGUGACUCACCUUCUCUGACAGAUUAUCA, the “pre-steady-state target cleavage rate” value was 0.018 ± 0.0058.
UAGUGUGUCACCUUCACUGAGAGAAUAACA was tested, and the “pre-steady-state target cleavage rate” value was 0.0146 ± 0.0066.
With UAGUGUGACACCAUCUCUGAGAGAUUAACA the “pre-steady-state target cleavage rate” value was 0.137 ± 0.011.
With UAGUGACAGUGCUUCUCUGAGAGAGUAACA the “pre-steady-state target cleavage rate” value was 0.00647 ± 0.0028.
With UAGUGUGUCACCUUCUCUGAGAGAUUAAGCA the “pre-steady-state target cleavage rate” value was 0.148 ± 0.035.
In the case of UAGUCUGUGACCUUCUGUGAGAGAUUAACA, the “pre-steady-state target cleavage rate” value is reported as 0.109 ± 0.0078.
In the case of UAGUGACACACCUUCUCUGAGAGAUAUAACA, the “pre-steady-state target cleavage rate” value is reported as 0.155 ± 0.021.
For UAGUGACACACCUUGUCUGUGAGAUUAACA, the “pre-steady-state target cleavage rate” value was 0.0374 ± 0.0046.
UAGUGAGUCACCUUCUGACAGAGAUUAACA was tested, and the “pre-steady-state target cleavage rate” value was 0.0161 ± 0.0054.
With UAGUGAGUCACCUUUUCUGAGAGAUUAACA the “pre-steady-state target cleavage rate” value was 0.175 ± 0.015.
With UAGUGACACAGCUUCUCUCAGAGAUUAACA the “pre-steady-state target cleavage rate” value was 0.0303 ± 0.0081.
In the case of UAGUGACAGUCGUUCUCUGAGAGAUUUACA, the “pre-steady-state target cleavage rate” value is reported as 0.00947 ± 0.0039.
For UAGUGACAGUGGAAGUCUGAGACAUUAUCA, the “pre-steady-state target cleavage rate” value was less than 0.0001.
UAGUGACACACCUUCUCUGAGAUGAUUAACA was tested, and the “pre-steady-state target cleavage rate” value was 0.092 ± 0.0095.
For UAGUGAGUCAGGUUCUCUGAGAGAUUAUGA, the “pre-steady-state target cleavage rate” value was 0.00754 ± 0.0035.
In the case of UAGUGUGUCAGCUUCUCUGAGACAUUAACA, the “pre-steady-state target cleavage rate” value is reported as 0.0192 ± 0.0061.
For UAGUCUGGUCACCUUCUCUGAGAGAUUAACA, the “pre-steady-state target cleavage rate” value was 0.233 ± 0.015.
In the case of UAGUCUGUGUCCUUCUCUGAGAGAUUAACA, the “pre-steady-state target cleavage rate” value is reported as 0.114 ± 0.0092.
With UAGUGUGUUCACCUUCUCUGAGAGAUUAACA the “pre-steady-state target cleavage rate” value was 0.176 ± 0.013.
With UAGUGUGUCACCUACUCUGAGAGAAUAACA the “pre-steady-state target cleavage rate” value was 0.0702 ± 0.017.
UAGUGUCUCACCUUCUGUGAGAGAUUAACA was tested, and the “pre-steady-state target cleavage rate” value was 0.0781 ± 0.011.
With UAGUGACAGUCCUUCUCAGAGAGUUUAACA the “pre-steady-state target cleavage rate” value was 0.00548 ± 0.0033.
With UAGUGUGUCUCCUUCUCUGAGAGAUUAACA the “pre-steady-state target cleavage rate” value was 0.16 ± 0.023.
For UAGUGAGUCUCCAUCUCUGAGAGAUUAACA, the “pre-steady-state target cleavage rate” value was 0.086 ± 0.013.
For UAGUCUGUCACCUUCUCUGAGAGUUUAUCA, the “pre-steady-state target cleavage rate” value was 0.149 ± 0.046.
In the case of UAGUCGUGUCACCUUCUCUGAGAGAUUAACA, the “pre-steady-state target cleavage rate” value is reported as 0.199 ± 0.01.
In the case of UAGUCUGUCACCUUCUCUGAGAGAGUAACA, the “pre-steady-state target cleavage rate” value is reported as 0.245 ± 0.033.
With UAGUGACAGACCUUGUCUGAGACAUUAACA the “pre-steady-state target cleavage rate” value was 0.0532 ± 0.015.
In the case of UAGUGUGACACCUUCUCUCAGAGAUUAACA, the “pre-steady-state target cleavage rate” value is reported as 0.0451 ± 0.011.
In the case of UAGUGACUCACCUUUUCUGAGAGAUUAACA, the “pre-steady-state target cleavage rate” value is reported as 0.179 ± 0.013.
For UAGUGAGUCACCUUCUCUGUGAGAUUUACA, the “pre-steady-state target cleavage rate” value was 0.0421 ± 0.0095.
With UAGUGAGAGACCUUCUCUGAGAGAUUAAGA the “pre-steady-state target cleavage rate” value was 0.0627 ± 0.022.
With UAGUGACAGUGGUUCUCUGAGAGAUUGAACA the “pre-steady-state target cleavage rate” value was less than 0.0001.
For UAGUGAGUCACCUUCAGUGAGAGAUUAAGA, the “pre-steady-state target cleavage rate” value was 0.0199 ± 0.0069.
In the case of UAGUGACUCACCUUGUCUGAGACAUUAACA, the “pre-steady-state target cleavage rate” value is reported as 0.0647 ± 0.011.
In the case of UAGUGACACUCCUUCUCUGAGAGAAUAACA, the “pre-steady-state target cleavage rate” value is reported as 0.0169 ± 0.0062.
For UAGUGACAGUGCUUCUCUGAGAUAUUAACA, the “pre-steady-state target cleavage rate” value was 0.00529 ± 0.0022.
For UAGUGACAGACCUUCUCAGAGAGAUAAACA, the “pre-steady-state target cleavage rate” value was 0.0127 ± 0.0055.
In the case of UAGUGACAGUGCUAUCUCUGAGAGAUUAACA, the “pre-steady-state target cleavage rate” value is reported as 0.0173 ± 0.004.
UAGUGACUCACCUUCUGUGAGAGAUUAAGA was tested, and the “pre-steady-state target cleavage rate” value was 0.0167 ± 0.0069.
In the case of UAGUCUGUCACAUUCUCUGAGAGAUUAACA, the “pre-steady-state target cleavage rate” value is reported as 0.153 ± 0.012.
For UAGUGUGUCAGCUUCUCUGAGAGUUUAACA, the “pre-steady-state target cleavage rate” value was 0.161 ± 0.036.
With UAGUGAGGCACCUUCUCUGAGAGAUUAACA the “pre-steady-state target cleavage rate” value was 0.205 ± 0.042.
In the case of UAGUGAGACACCUUCACUGAGAGAUUAACA, the “pre-steady-state target cleavage rate” value is reported as 0.113 ± 0.0086.
In the case of UAGUGACUCACCUUCUCAGUGAGAUUAACA, the “pre-steady-state target cleavage rate” value is reported as 0.0126 ± 0.0033.
For UAGUGACUCACCCUUCUCUGAGAGAUUAACA, the “pre-steady-state target cleavage rate” value was 0.062 ± 0.011.
UAGUGACAGUCCUUCUCUGAGAGAUGAACA was tested, and the “pre-steady-state target cleavage rate” value was 0.00504 ± 0.0029.
For UAGUGACUCACCUUCUCUGAGAGAUUAGACA, the “pre-steady-state target cleavage rate” value was 0.129 ± 0.046.
With UAGUGACAGAGCAUCUCUGAGAGAUUAACA the “pre-steady-state target cleavage rate” value was 0.0069 ± 0.0024.
For UAGUGACACACCUUGUCUGACAGAUUAACA, the “pre-steady-state target cleavage rate” value was 0.115 ± 0.031.
“UAGUGUGUCACCUUCUCUGAGAGAUUAACA [g2:g25:cont:t1A]” was tested, and the “pre-steady-state target cleavage rate” value was 0.216 ± 0.015.
In the case of UAGUGACUCACCUUUCUGAGAGAUUAACA, the “pre-steady-state target cleavage rate” value is reported as 0.0361 ± 0.013.
UAGUGACAGUCGUUGUCUGAGAGAUUAACA was tested, and the “pre-steady-state target cleavage rate” value was 0.0115 ± 0.0021.
In the case of UAGUGACACACGUUCUCUGAGAGAUUAUCA, the “pre-steady-state target cleavage rate” value is reported as 0.0622 ± 0.014.
For UAGUGACACACCUUCUCUGUGAGAUUUUGA, the “pre-steady-state target cleavage rate” value was 0.0136 ± 0.0053.
For UAGUCUGUCCCUUCUCUGAGAGAUUAACA, the “pre-steady-state target cleavage rate” value was 0.198 ± 0.018.
In the case of UAGUGACUCACCUAGACUGAGAGAUUAACA, the “pre-steady-state target cleavage rate” value is reported as 0.0192 ± 0.0063.
With UAGUGACAGUGGAAGAGAGAGAGAUGAACA the “pre-steady-state target cleavage rate” value was less than 0.0001.
For UAGUGACAGUGCUUCUCUGAGAGUAAAACA, the “pre-steady-state target cleavage rate” value was less than 0.0001.
UAGUGACAGUGGAUUUCUGAGAGAUUAACA was tested, and the “pre-steady-state target cleavage rate” value was 0.00273 ± 0.0019.
In the case of UAGUCUGUCACCUUCACUGAGAGAUUUACA, the “pre-steady-state target cleavage rate” value is reported as 0.185 ± 0.045.
For UAGUGAGUGACCAUCUCUGAGAGAUUAACA, the “pre-steady-state target cleavage rate” value was 0.0822 ± 0.011.
In the case of UAGUGUGUGACCUUCUCUCAGAGAUUAACA, the “pre-steady-state target cleavage rate” value is reported as 0.0403 ± 0.011.
In the case of UAGUCUGUCACCUACUCUCAGAGAUUAACA, the “pre-steady-state target cleavage rate” value is reported as 0.0458 ± 0.0055.
For UAGUCUGUCACCUUCUCUGAGAGCUUAACA, the “pre-steady-state target cleavage rate” value was 0.148 ± 0.016.
In the case of UAGUCUGUCUGCUUCUCUGAGAGAUUAAGA, the “pre-steady-state target cleavage rate” value is reported as 0.0318 ± 0.0048.
With UAGUGUCUCACCUUCUCUGAGAGUUUAACA the “pre-steady-state target cleavage rate” value was 0.286 ± 0.038.
UAGUGACAGUGGAUCUCUGAGAGAUUGAACA was tested, and the “pre-steady-state target cleavage rate” value was less than 0.0001.
UAGUCUGUGACCUUGUCUGAGAGAUUAACA was tested, and the “pre-steady-state target cleavage rate” value was 0.093 ± 0.011.
In the case of UAGUGUGUCUCCUUCUCAGAGAGAUUAACA, the “pre-steady-state target cleavage rate” value is reported as 0.0522 ± 0.011.
For UAGUCUGUCACCUUCUGUGAGAGAUAAACA, the “pre-steady-state target cleavage rate” value was 0.0199 ± 0.0068.
With UAGUGACAGACCGUUCUCUGAGAGAUUAACA the “pre-steady-state target cleavage rate” value was 0.0665 ± 0.0095.
